Assay results from PubChem BioAssay AID2675 (National Center for Advancing Translational Sciences (NCATS), 2010).
Screen size: about 280,000 compounds; about 100 (0.036%) were called active. Inconclusive means that the source gave no clear call. Such entries were picked first, then a sample of the others. The call rests on the fitted dose curve; in most records, active means well fitted inhibition curve with a large enough effect in the signal ratio, with a control signal flat (not every such curve was filed as active); inconclusive means small, poorly fitted or top-dose-only effect, or effect the other way, or a change in a side signal; inactive means no such curve, though single readings can be large or run the other way; the % refers to the signal ratio. Potencies of inconclusive entries are doubtful fits and often do not repeat. A note “side channel” means that the fit belongs to a control or component signal, not to the main read-out.

Each compound was assayed against Muscleblind-like protein 1 (Homo sapiens) (UniProt Q9NR56) (assay: qHTS Assay for Inhibitors of MBNL1-poly(CUG) RNA binding). Details: TR-FRET MBNL1-His/biotin-(CUG)12 binding, 665/545 ratio; activity change, negative = inhibition: at 57.5 µM (top of the series).
Procedure, shortened: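 TR-FRET between His-tagged MBNL1 and biotin-(CUG)12 RNA, detected with Tb anti-His antibody (0.055 ng/ul) and streptavidin-XL665 (5 nM), 60 min at room temperature. Compounds titrated 92 nM to 58 uM; 665/545 nm ratio normalized to buffer and complex controls.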
On the % scale 0 is the no-effect control and ±100 the full control effect; potency means the concentration at half of the fitted maximal effect; tags describe the fitted curve by direction and shape or compound fluorescence and quenching.

Sequence of UniProt Q9NR56 (Q9NR56 whole entry, looked up): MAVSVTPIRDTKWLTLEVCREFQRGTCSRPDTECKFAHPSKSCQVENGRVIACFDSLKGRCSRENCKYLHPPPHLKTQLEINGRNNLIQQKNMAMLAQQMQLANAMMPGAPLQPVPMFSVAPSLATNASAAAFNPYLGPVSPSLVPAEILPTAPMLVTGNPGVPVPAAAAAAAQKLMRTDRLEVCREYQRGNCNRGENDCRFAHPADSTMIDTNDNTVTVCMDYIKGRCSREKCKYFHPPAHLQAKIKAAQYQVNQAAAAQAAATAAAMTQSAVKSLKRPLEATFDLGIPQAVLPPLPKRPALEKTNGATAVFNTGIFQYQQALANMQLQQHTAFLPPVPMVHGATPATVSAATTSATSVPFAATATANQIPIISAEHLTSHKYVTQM

SMILES | Potency | activity change, negative = inhibition
CC(C)(C)NC(=O)COC(=O)CNC(=O)c1cc(Cl)cc([N+](=O)[O-])c1 | inconclusive: 14.1 µM [quencher, side channel, partial curve] | 
CN(CC(=O)Nc1cccc(F)c1)CC(=O)Nc1ccccc1Oc1ccccc1 |  | inactive: 10.2%
CCN(CC)CCN1C(=O)C(=O)/C(=C(/O)c2cnn(-c3ccccc3)c2C)C1c1cccnc1 (stereo unspecified) | inconclusive: 14.1 µM [quencher, side channel, single point] | 
Cc1c(NC(=O)Nc2ccc([N+](=O)[O-])cc2)c(=O)n(-c2ccccc2)n1C |  | inactive: 9.76%
CCN1C(=O)c2cccc3c(S(=O)(=O)NC(Cc4c[nH]c5ccccc45)C(=O)O)ccc1c23 (stereo unspecified) | inconclusive: 25.1 µM [quencher, side channel, single point] | 
C=CCNC(=S)NNC(=O)COc1c(Cl)cc(Cl)cc1Cl | inconclusive: 7.08 µM [fluorescent, side channel, partial curve] | 
CCCn1c(C)cc(C(=O)Cn2nnc3ccccc3c2=O)c1C | inconclusive: 31.6 µM [quencher, side channel, partial curve] | 
N#Cc1cc(N2CCCCC2)c([N+](=O)[O-])cc1C#N | inconclusive: 3.98 µM [quencher, side channel, partial curve] | 
COc1cc(NC(=O)COC(=O)C=C(C)C)c(C)cc1[N+](=O)[O-] | inconclusive: 25.1 µM [quencher, side channel, partial curve] | 
Cc1cc(NCCO)c2ccccc2n1 |  | inactive: -7.59%
COc1ccc(S(=O)(=O)N(CCN2CCOCC2)Cc2cc(OC)ccc2OC)cc1 |  | inactive: -3.47%
COc1ccccc1NC(=O)c1nn(-c2ccc(OC(F)(F)F)cc2)ccc1=O | inconclusive: 39.8 µM [quencher, side channel, single point] | 
CCCN1C(=O)CC(c2ccco2)Sc2ccccc21 (stereo unspecified) |  | inactive: 0.341%
COc1ccc(NC(=O)c2ccccc2)c([N+](=O)[O-])c1 | inconclusive: 11.2 µM [quencher, partial curve] | 
CN(c1ccc(C(=O)NCCSC(C)(C)C)cc1)S(C)(=O)=O |  | inactive: 3.86%
COc1cc(/C=N/Nc2nc(=O)[nH]nc2C)ccc1O | inconclusive: 31.6 µM [quencher, side channel, single point] | 
O=C(NCCCN1CCCCCC1)C1CCCN(S(=O)(=O)c2cccc3nsnc23)C1 (stereo unspecified) | inconclusive: 11.2 µM [quencher, side channel, partial curve] | 
CCOc1ccc(N=C2NC(=O)C(CC(=O)Nc3ccc(OC)cc3)S2)cc1 (stereo unspecified) |  | inactive: 8.34%
O=C(Cc1ccccc1[N+](=O)[O-])N1CCN(c2ccc(F)cc2)CC1 | inconclusive: 17.8 µM [quencher, side channel, partial curve] | 
Cc1cc[n+](CC(=O)c2ccc(NC(=O)c3ccccc3)cc2)c2ccccc12 | inconclusive: 17.8 µM [quencher, side channel, partial curve] | 
Cc1nc([N+](=O)[O-])nn1C12CC3CC(CC(Br)(C3)C1)C2 | inconclusive: 15.8 µM [quencher, side channel, partial curve] | 

SMILES | Potency | activity change, negative = inhibition
C[n+]1cccc2ccc3c(c21)OC(N)=C(C#N)C3c1ccccc1 (stereo unspecified) | inconclusive: 12.6 µM [quencher, partial curve] | 
COc1ccc(NC(=O)C2CCCN(S(=O)(=O)c3cccc4cccnc34)C2)cc1OC (stereo unspecified) | inconclusive: 0.501 µM [fluorescent, side channel, partial curve, poor fit] | 
Cc1ccc2nsnc2c1S(=O)(=O)NCc1ccc2c(c1)OCO2 | inconclusive: 31.6 µM [quencher, single point] | 
Cc1cccc(OCc2nc(-c3ccccn3)n[nH]2)c1 |  | inactive: 13.3%
COC1=CC(=Cc2c(N)n3nc(CC(=O)N4CCOCC4)sc3nc2=O)C=C(OC)C1=O | inconclusive: 0.708 µM [quencher, full curve, poor fit] | 
CCN1CCN(C(=O)/C=C/c2ccc(OC)cc2)CC1 | inconclusive: 35.5 µM [quencher, side channel, partial curve] | 
COc1ccc(Nc2nnc(-c3ccc(N4CCOCC4)c([N+](=O)[O-])c3)c3ccccc23)cc1 | inconclusive: 8.91 µM [quencher, side channel, full curve] | 
C=CCn1c(O)c(N=O)c2ccccc21 | inconclusive: 15.8 µM [quencher, side channel, partial curve] | 
Cc1ccc(S(=O)(=O)NC2CC2)cc1[N+](=O)[O-] | inconclusive: 28.2 µM [quencher, side channel, single point] | 
O=C(OCCN1C(=O)c2ccccc2C1=O)c1cc(=O)[nH]c2ccccc12 | inconclusive: 15.8 µM [quencher, partial curve] | 
O=[N+]([O-])c1ccc2oc(C(O)c3cccc(Cl)c3)cc2c1 (stereo unspecified) | inconclusive: 22.4 µM [quencher, side channel, single point] | 
O=C(CCc1c[nH]c2ccccc12)N=Nc1c(O)[nH]c2ccccc12 | inconclusive: 39.8 µM [quencher, single point] | 
Cc1cc(O)c(C(=O)/C=C/c2c(F)c(F)c(F)c(F)c2F)c(=O)o1 | inconclusive: 39.8 µM [quencher, single point] | 
CCCCn1c(N)c(N(CCOC)C(=O)c2cc(-c3ccncc3)nc3ccccc23)c(=O)[nH]c1=O | inconclusive: 28.2 µM [quencher, side channel, single point] | 
CCOC(=O)c1ccc(N2C=C(C(=O)OC)C(c3cccc(O)c3)C(C(=O)OC)=C2)cc1 | inconclusive: 39.8 µM [fluorescent, side channel, single point] | 
COc1ccccc1CNC(=O)CN(C)S(=O)(=O)c1cccc2cccnc12 |  | inactive: -3.27%
O=C(CN1CCOCC1)Nc1cccc(C(=O)Nc2cccc(C(F)(F)F)c2)c1 | inconclusive: 2.51 µM [quencher, side channel, single point] | 
CCc1ccc2c(c1)C1(NN=C(c3cccc4ccccc34)S1)C(=O)N2 (stereo unspecified) |  | inactive: 36.7%
COc1cc(/C=N/NC(=O)Cc2nnc(N)s2)cc(OC)c1OC | inconclusive: 44.7 µM [quencher, side channel, single point] | 
CCN1C(C(=O)c2ccccc2)=C(Nc2ccccc2C)c2ccccc2S1(=O)=O | inconclusive: 17.8 µM [fluorescent, side channel, partial curve] | 
CCN1CCN(C2=C(NS(=O)(=O)c3ccc(C)cc3)C(=O)c3ccccc3C2=O)CC1 | inconclusive: 3.16 µM [quencher, side channel, partial curve] | 

SMILES | Potency | activity change, negative = inhibition
O=c1ccc2ccc(Oc3ccc([N+](=O)[O-])cc3Cl)cc2o1 | inconclusive: 8.91 µM [quencher, side channel, partial curve] | 
COc1ccccc1NC(=O)/C=C/c1cc([N+](=O)[O-])ccc1OC(F)F |  | inactive: 4.87%
Cc1onc(-c2c(Cl)cccc2Cl)c1COC(=O)c1ccc([N+](=O)[O-])cc1 | inconclusive: 25.1 µM [quencher, side channel, single point] | 
C/C(=N/NC(=O)c1ccccn1)c1ccco1 | inconclusive: 39.8 µM [quencher, side channel, single point] | 
Cc1ccc(S(=O)(=O)c2c(N)n(CCN3CCOCC3)c3nc4ccccc4nc23)cc1C | inconclusive: 6.31 µM [fluorescent, side channel, single point] | 
CC(=O)Oc1ccc([N+](=O)[O-])cc1N1C(=O)c2ccccc2C1=O | inconclusive: 25.1 µM [quencher, side channel, single point] | 
N=c1oc2ccc3ccccc3c2cc1C(N)=S | inconclusive: 7.94 µM [quencher, side channel, partial curve] | 
CN(C)CCC(=O)c1cccc(Br)c1 |  | inactive: 4.87%
Cc1cccc(N2CCN(S(=O)(=O)c3cc(-c4cc(C)no4)ccc3C)CC2C)c1 (stereo unspecified) |  | inactive: 6.92%
COc1ccc(C(=O)Nc2ccc(NC(=O)c3ccccn3)cn2)cc1 |  | inactive: 5.92%
Cn1c(O)c(N=NC(=O)CNC(=O)c2cccnc2)c2ccccc21 | inconclusive: 7.94 µM [quencher, side channel, partial curve] | 
CC1=C(C(=O)OCCOc2ccccc2)C(c2ccsc2)NC(=O)N1C (stereo unspecified) |  | inactive: 10.1%
O=[N+]([O-])c1ccc(OCc2n[nH]c(=S)n2-c2ccccc2)cc1 | inconclusive: 25.1 µM [quencher, partial curve] | 
COc1ccc(-c2n[nH]c(=S)nc2-c2ccc(OC)cc2)cc1 |  | inactive: 13.3%
COc1ccccc1-c1ccc(Nc2cccc(C(F)(F)F)c2)nn1 | inconclusive: 0.1 µM [fluorescent, side channel, full curve, poor fit] | 
O=S(=O)(c1ccc2nc(-c3ccco3)c(-c3ccco3)nc2c1)N1CCOCC1 | inconclusive: 5.01 µM [quencher, side channel, partial curve] | 
O=[N+]([O-])c1c(NCCO)cc(N2CCC3(CC2)OCCO3)c2nonc12 | inconclusive: 7.94 µM [quencher, side channel, partial curve] | 
CC(Oc1ccc2c(-c3ccccc3)cc(=O)oc2c1)C(=O)NC(Cc1c[nH]c2ccc(O)cc12)C(=O)O (stereo unspecified) | inconclusive: 31.6 µM [quencher, side channel, partial curve] | 
O=[N+]([O-])c1cnc(Nc2ccccc2)nc1Nc1ccccc1 |  | inactive: -8.48%
